Source: PubChem BioAssay AID588342 (National Center for Advancing Translational Sciences (NCATS), 2011)
About 25,000 (6.9%) of roughly 360,000 compounds were called active. Inconclusive means that the source gave no clear call. Such entries were picked first, then a sample of the others. The call rests on the fitted dose curve; in most records, active means well fitted inhibition curve with a large enough effect; inconclusive means small, poorly fitted or top-dose-only effect; inactive means flat fitted curve, though single readings scatter. Potencies beside an inconclusive call are fits to weak or partial responses and may not hold up.

What follows are molecules tested against Luciferin 4-monooxygenase (Photinus pyralis) (UniProt P08659) (assay: qHTS profiling assay for firefly luciferase inhibitor/activator using purifed enzyme and Km concentrations of substrates (counterscreen for miR-21 project)). Settings: purified FLuc, luminescence inhibition; activity change, negative = inhibition: at 57.5 µM (top of the series).
Sequence of UniProt P08659 (P08659 whole entry, looked up): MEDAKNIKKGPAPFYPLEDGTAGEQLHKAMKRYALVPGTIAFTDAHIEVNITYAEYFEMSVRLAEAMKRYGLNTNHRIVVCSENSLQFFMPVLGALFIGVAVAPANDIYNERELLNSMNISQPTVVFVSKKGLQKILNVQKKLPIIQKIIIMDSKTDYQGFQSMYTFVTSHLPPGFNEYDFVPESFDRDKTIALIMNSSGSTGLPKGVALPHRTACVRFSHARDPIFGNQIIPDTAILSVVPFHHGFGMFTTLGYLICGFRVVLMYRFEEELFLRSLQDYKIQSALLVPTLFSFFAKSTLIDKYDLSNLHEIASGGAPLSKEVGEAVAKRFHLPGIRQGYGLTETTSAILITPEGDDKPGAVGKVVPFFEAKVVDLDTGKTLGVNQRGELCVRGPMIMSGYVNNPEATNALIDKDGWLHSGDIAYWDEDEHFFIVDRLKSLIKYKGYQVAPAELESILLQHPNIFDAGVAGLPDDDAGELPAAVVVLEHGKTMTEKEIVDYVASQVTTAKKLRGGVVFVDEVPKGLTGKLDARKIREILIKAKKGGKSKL
How it was run: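 Purified P. pyralis luciferase, 10 nM final, with Km-level 10 uM D-luciferin and 10 uM ATP in 50 mM Tris acetate pH 7.5, 10 mM Mg acetate, 0.01% Tween-20, 0.05% BSA; 6-point qHTS titration about 60 µM downward; luminescence read.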
Further: nearly all actives have a fitted effect of over 55% in size.
Potency means the concentration at half of the fitted maximal effect; tags describe the fitted curve by direction and shape.
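Wherever activity change, negative = inhibition is given: plate controls were vehicle for no effect and reference inhibitor for full effect.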

Structure (SMILES)	Potency	activity change, negative = inhibition
CCc1nnc(NC(=O)c2ccc3c(c2)C(=O)N(CC(C)C)C3=O)s1	inconclusive: 6.01 µM [inhibitor, partial curve]	
Cc1cc(C(=O)Cn2nc(C(=O)O)c3ccccc3c2=O)c(C)n1-c1ccc(F)cc1	active: 2.69 µM	
O=C(CN1CCC(c2nc3ccccc3s2)CC1)NCc1cccs1	inconclusive: 37.9 µM [inhibitor, partial curve, poor fit]	
COc1ccc(NC(=O)c2cc3ccccc3cc2OC)cc1	active: 3.38 µM	
CCOC(=O)c1sc(NC(=O)CCN2CCN(CC)CC2)c(C(=O)OCC)c1C		inactive: 0.111%
Clc1cccc(/C=N/Nc2nnc(Cl)c3ccccc23)c1	inconclusive: 12 µM [inhibitor, partial curve, poor fit]	
O=C(N/N=C/c1ccccc1O)NC12CC3CC(CC(C3)C1)C2	active: 21.3 µM	
Cc1ccc(Cl)cc1N1CCN(C(=O)c2cn(C3CCCCC3)c(=O)c3c2c2ccccc2n3C)CC1		inactive: 0.738%
CCc1ccccc1N(CC(=O)NC(C)(C)CC)C(=O)CCC(=O)Nc1nccs1		inactive: 1.87%
Cc1sc2nc3ccc(NCc4ccco4)nn3c(=O)c2c1C		inactive: -12.9%
CCn1c(=O)c(C(=O)NNS(=O)(=O)c2ccc(Br)cc2)c(O)c2ccccc21	inconclusive: 16.9 µM [inhibitor, partial curve]	
CCS(=O)(=O)N1CC(=O)N(c2ccccc2C)C(C)(C(=O)NC2CCCCC2)C1 (stereo unspecified)		inactive: -0.736%
COCCCNC(=O)Cn1c(=O)n(-c2ccc(C)cc2)c(=O)c2c1c1cc(C)ccc1n2C		inactive: 3.63%
CN(C)/C=C(\C=O)c1onc(-c2ccccc2Cl)c1C#N	inconclusive: 30.1 µM [inhibitor, partial curve, poor fit]	
CCCc1nc2ccccc2c(C(=O)OCC(=O)N2CCc3ccccc32)c1CC	inconclusive: 23.9 µM [inhibitor, single point]	
Cc1nnc(N/N=C/c2cccc(OCc3ccc(Cl)c(Cl)c3)c2)n1N	active: 16.9 µM	
CC(=O)N1c2ccccc2CC1C(=O)N1CCN(c2ccc(F)cc2)CC1 (stereo unspecified)		inactive: -0.433%
O=[N+]([O-])c1ccccc1OCCCn1cnc2ccccc21	active: 5.36 µM	
COC(=O)C1CCN(S(=O)(=O)c2cc3c4c(c2)C(C)C(=O)N4CCC3)CC1 (stereo unspecified)		inactive: -7.33%
CC1CCN(c2c(NCc3ccc(C(=O)N4CCc5ccccc54)cc3)c(=O)c2=O)CC1		inactive: -3.84%
CCN(CC)C(=O)c1cc2c(=O)n3cccc(C)c3nc2s1	inconclusive: 37.9 µM [inhibitor, partial curve, poor fit]	
COc1cc(/C=N/NC(=O)c2ccc(O)cc2)ccc1Oc1ccc([N+](=O)[O-])cn1	inconclusive: 9.53 µM [inhibitor, partial curve, poor fit]	
CN1CCc2c(sc(/N=C/c3cccs3)c2C(N)=O)C1	inconclusive: 23.9 µM [inhibitor, partial curve]	
Cc1ccc(C(=O)CSc2nnc(-c3ccccc3N)n2C)cc1	inconclusive: 23.9 µM [inhibitor, partial curve, poor fit]	
Cc1ccc2c(c1)[nH]c1c(N3CCN(Cc4ccccc4)CC3)ncnc12	inconclusive: 26.9 µM [inhibitor, partial curve, poor fit]	
C/C(=N\N=C\c1ccc(N(C)C)cc1)c1cccc([N+](=O)[O-])c1	active: 2.13 µM	

Structure (SMILES)	Potency	activity change, negative = inhibition
CC(C)(C)NS(=O)(=O)c1ccc2nc(NC(=O)c3cccnc3)sc2c1	inconclusive: 21.3 µM [inhibitor, partial curve, poor fit]	
Cc1ccc2c(COC(=O)c3c(C)noc3C)cc(=O)oc2c1	inconclusive: 37.9 µM [inhibitor, partial curve, poor fit]	
CC(=O)CSc1cc(C)nc2c(-c3ccccc3)c(C)nn12		inactive: -1.18%
CC(C)(C)c1ccc(C(=O)NC(=S)N2CCOCC2)cc1	active: 9.53 µM	
CC(Oc1ccccc1)C(=O)Nc1nc2ccc(S(N)(=O)=O)cc2s1 (stereo unspecified)		inactive: -12.8%
CNc1nc(N)c(C(=O)Nc2cc(C)on2)s1	inconclusive: 23.9 µM [inhibitor, single point]	
c1ccc(OCc2nc(-c3ccncc3)no2)cc1	inconclusive: 37.9 µM [inhibitor, single point]	
OC(CNCCc1ccc(C(F)(F)F)cc1)COC(c1ccccc1)c1ccccc1 (stereo unspecified)		inactive: -2.44%
CC(CN1CCCCC1)OC(=O)c1ccc2c(c1)OCCO2 (stereo unspecified)	inconclusive: 23.9 µM [inhibitor, single point]	
CC(C)CCNC(=O)C(=O)NCCC1=CCCCC1	inconclusive: 26.9 µM [inhibitor, partial curve, poor fit]	
Cc1nn2c(NCc3ccccn3)c3c(nc2c1-c1ccccc1)CCC3		inactive: -10.4%
Cc1ccc(OCc2nc3ccccc3n2CC(C)C)cc1	inconclusive: 21.3 µM [inhibitor, single point]	
C/C(NC(=O)c1ccccc1)=C1/C(=O)CC2C1C2(C)C (stereo unspecified)	active: 15.1 µM	
O=C(COC(=O)c1ccc(Cl)c(S(=O)(=O)NCc2ccccc2)c1)NCC1CCCO1 (stereo unspecified)		inactive: -3.12%
CC(C)(C)c1ccc(N2C(=O)Cc3c2nc(N)c(C#N)c3N)cc1	inconclusive: 30.1 µM [inhibitor, partial curve, poor fit]	
N#CCC(=O)N1CC2(CC(c3cccc(NC(=O)COc4ccc(Cl)cc4)c3)=NO2)C[C@@H]1C(N)=O (stereo partly specified)	active: 15.1 µM	
Cc1cc(NC(=O)c2noc3c2CCCC3)no1	inconclusive: 26.9 µM [inhibitor, partial curve, poor fit]	
CCc1cc(CNC(=O)c2cc(COc3ccc(C)nc3)on2)on1	active: 16.9 µM	
COc1ccc(Nc2cc(=O)oc3ccccc23)cc1		inactive: 1.53%
CCCC(=O)NCC(c1ccc2c(c1)OCO2)N1CCN(c2ccc(F)cc2)CC1 (stereo unspecified)		inactive: -5.02%
CCOC(=O)c1cc(COc2cc(Cl)cc(Cl)c2)on1		inactive: 2.76%
CC(=Nc1cccc(O)c1)c1sc2ccccc2c1O	active: 1.69 µM	
COC(=O)CC(=O)Cc1nc(N)nc(Nc2ccc(C)c(C)c2)n1		inactive: 0.758%
Cc1ccc(OCCCC(=O)N2CCOCC2)c(C)c1	inconclusive: 26.9 µM [inhibitor, single point]	
Cc1ncc(/C=C2\C(=O)Nc3ccccc32)[nH]1	inconclusive: 19 µM [inhibitor, partial curve]	
Cc1c(CCC(=O)O)c(=O)oc2cc(OCc3cccc(Cl)c3)ccc12	inconclusive: 26.9 µM [inhibitor, single point]	

Structure (SMILES)	Potency	activity change, negative = inhibition
CN(Cc1ccccc1)c1ccc(C(=O)O)cc1[N+](=O)[O-]	inconclusive: 21.3 µM [inhibitor, partial curve, poor fit]	
Cc1ccc2[nH]c3nc(N/N=C/c4cccc(O)c4)nnc3c2c1	inconclusive: 3.79 µM [inhibitor, partial curve]	
O=C(COc1ncnc2ccccc12)c1ccc(Cl)cc1	inconclusive: 23.9 µM [inhibitor, single point]	
Cc1ccc(NC(=O)c2ccc(Cl)c(NC(=O)c3cccs3)c2)cc1	active: 10.7 µM	
Cc1ccc(/C=C2\OC(=O)c3ccccc32)cc1	active: 1.07 µM	
CCOC(=O)c1c(C)[nH]c(N=Nc2ccccc2)c1C	active: 12 µM	
COc1ccc(Cc2nc3ccccc3n2C)cc1		inactive: -9.66%
CNc1ccccc1C(=O)OCC(=O)c1ccccc1	active: 7.57 µM	
N#Cc1c(N2C(=O)Nc3ccccc3N2O)sc2c1CCCCCC2	inconclusive: 13.5 µM [inhibitor, partial curve, poor fit]	
O=C(Nc1nnc(-c2ccc(F)cc2)o1)c1cc(Cl)sc1Cl		inactive: -14.4%
CN(C)c1ccc(-c2noc(C3CCN(C(=O)Nc4ccc(Cl)cc4)CC3)n2)cc1		inactive: -12.1%
COc1ccc(-c2cn3nc(SCC(=O)NC4CCCCC4)ccc3n2)cc1	active: 0.338 µM	
COc1ccc(-c2csc(N(CCCN(C)C)C(=O)c3ccc(Br)cc3)n2)cc1	inconclusive: 37.9 µM [inhibitor, single point]	
Cc1nn(C(C)C(=O)NC2CCC(C)CC2)c(=O)c2nn(-c3ccccc3)c(C)c12 (stereo unspecified)	inconclusive: 30.1 µM [inhibitor, single point]	
CC1CCN(S(=O)(=O)c2ccc3c(c2)oc(=O)n3CC(=O)NCc2ccc(F)cc2)CC1	inconclusive: 21.3 µM [inhibitor, partial curve, poor fit]	
CCCCC(=O)Nc1ccc(NCc2ccc(C)s2)cc1	inconclusive: 37.9 µM [inhibitor, single point]	
O=C(NC1CCCC1)c1cc(-c2ccc(Cl)c(Cl)c2)on1	inconclusive: 6.75 µM [inhibitor, full curve]	
S=C(NCCc1ccccc1)NN=C1CCCCCC1	active: 16.9 µM	
Cc1cc(-c2n[nH]c(=S)n2/N=C/C(Br)=C/c2ccccc2)n[nH]1		inactive: -6.14%
Cc1cc(C(=O)CN2C(=O)NC(C)(c3cccc(Br)c3)C2=O)c(C)n1Cc1ccco1 (stereo unspecified)	inconclusive: 19 µM [inhibitor, single point]	
c1ccc(-c2nc(-c3ccco3)n3ccccc23)cc1	inconclusive: 30.1 µM [inhibitor, single point]	
CCOC(=O)CNC(=O)c1cc(C)oc1C		inactive: 9.27%
O=C(CCc1ccccc1)c1nnc(-c2ccccc2)o1	inconclusive: 26.9 µM [inhibitor, partial curve]	
CC(=O)N(C(C)=O)N1C(=O)/C(=C/c2ccc(Cl)cc2)SC1=S	inconclusive: 15.1 µM [inhibitor, partial curve]	
